As a reminder, the Kd is the constant that tells how readily two partners part at equilibrium.

Binding result and Kd data for eight molecules are collected here from patent US20220298244A1 (BEIJING MABWORKS BIOTECH, published 2022).

Where a chain is given by its changes, count along the chain named. Numbers in names are those of the source.

B1: 56E5VH3VL3 (antibody, human IgG1, kappa)
heavy chain: QVQLQESGPGLVKPSQTLSLTCTVSGGSITSDYWNWIRQHPGNKLEYMGYISYTGSTYYNPSLKSRVTITVDTSKNQFSLKLSSVTTADTAVYYCARYRDWDVRAMDYWGQGTTVTVSSASTKGPSVFPLAPSSKSTSGGTAALGCLVKDYFPEPVTVSWNSGALTSGVHTFPAVLQSSGLYSLSSVVTVPSSSLGTQTYICNVNHKPSNTKVDKKV[human IgG1 Fc with changes not spelt out]
light chain: DIVMTQSPDSLAVSLGEKVTMNCKSSQSLLISGNQKNFLTWYQQKPGQPPKLLIYWASTRESGVPDRFSGSGSGTDFTLTISSLQAEDVAVYYCQNDFGFPFTFGQGTKVEIKRTVAAPSVFIFPPSDEQLKSGTASVVCLLNNFYPREAKVQWKVDNALQSGNSQESVTEQDSKDSTYSLSSTLTLSKADYEKHKVYACEVTHQGLSSPVTKSFNRGEC
notes: humanized 56E5 antibody
B2: humanized antibody 56E5-VH5VL3 (antibody, human IgG1, kappa)
heavy: QVQLQESGPGLVKPSQTLSLTCTVSGGSITSDYWNWIRQHPGNKLEYMGYISYTGSTYYNPSLKSRISITRDTSKNQFSLKLSSVTTADTAVYYCARYRDWDVRAMDYWGQGTTVTVSSASTKGPSVFPLAPSSKSTSGGTAALGCLVKDYFPEPVTVSWNSGALTSGVHTFPAVLQSSGLYSLSSVVTVPSSSLGTQTYICNVNHKPSNTKVDKKV[human IgG1 Fc with changes not spelt out]
light: B1 light chain
notes: Human IgG1(N297A)/kappa
B3: 56E5VH3VL2 (antibody, human IgG1, kappa)
heavy chain: QVQLQESGPGLVKPSQTLSLTCTVSGGSITSDYWNWIRQHPGNKLEYMGYISYTGSTYYNPSLKSRVTITVDTSKNQFSLKLSSVTTADTAVYYCARYRDWDVRAMDYWGQGTTVTVSSASTKGPSVFPLAPSSKSTSGGTAALGCLVKDYFPEPVTVSWNSGALTSGVHTFPAVLQSSGLYSLSSVVTVPSSSLGTQTYICNVNHKPSNTKVDKKV[human IgG1 Fc with changes not spelt out]
light chain: B1 light chain with K18R, V19A
notes: humanized 56E5 antibody
B4: 56E5VH2VL2 (antibody, human IgG1, kappa)
heavy chain: QVQLQESGPGLVKPSQTLSLTCTVSGGSITSDYWNWIRQHPGKGLEYMGYISYTGSTYYNPSLKSRVTITVDTSKNQFSLKLSSVTTADTAVYYCARYRDWDVRAMDYWGQGTTVTVSSASTKGPSVFPLAPSSKSTSGGTAALGCLVKDYFPEPVTVSWNSGALTSGVHTFPAVLQSSGLYSLSSVVTVPSSSLGTQTYICNVNHKPSNTKVDKKV[human IgG1 Fc with changes not spelt out]
light chain: B1 light chain with K18R, V19A
notes: humanized 56E5 antibody
B5: 56E5VH2VL3 (antibody, human IgG1, kappa)
heavy chain: QVQLQESGPGLVKPSQTLSLTCTVSGGSITSDYWNWIRQHPGKGLEYMGYISYTGSTYYNPSLKSRVTITVDTSKNQFSLKLSSVTTADTAVYYCARYRDWDVRAMDYWGQGTTVTVSSASTKGPSVFPLAPSSKSTSGGTAALGCLVKDYFPEPVTVSWNSGALTSGVHTFPAVLQSSGLYSLSSVVTVPSSSLGTQTYICNVNHKPSNTKVDKKV[human IgG1 Fc with changes not spelt out]
light chain: B1 light chain
notes: humanized 56E5 antibody
B6: 56E5VH4VL3 (antibody, human IgG1, kappa)
heavy chain: QVQLQESGPGLVKPSQTLSLTCTVSGGSITSDYWNWIRQHPGNKLEYMGYISYTGSTYYNPSLKSRVTITRDTSKNQFSLKLSSVTTADTAVYYCARYRDWDVRAMDYWGQGTTVTVSSASTKGPSVFPLAPSSKSTSGGTAALGCLVKDYFPEPVTVSWNSGALTSGVHTFPAVLQSSGLYSLSSVVTVPSSSLGTQTYICNVNHKPSNTKVDKKV[human IgG1 Fc with changes not spelt out]
light chain: B1 light chain
notes: humanized 56E5 antibody
B7: 56E5VH5VL2 (antibody, human IgG1, kappa)
heavy chain: QVQLQESGPGLVKPSQTLSLTCTVSGGSITSDYWNWIRQHPGNKLEYMGYISYTGSTYYNPSLKSRISITRDTSKNQFSLKLSSVTTADTAVYYCARYRDWDVRAMDYWGQGTTVTVSSASTKGPSVFPLAPSSKSTSGGTAALGCLVKDYFPEPVTVSWNSGALTSGVHTFPAVLQSSGLYSLSSVVTVPSSSLGTQTYICNVNHKPSNTKVDKKV[human IgG1 Fc with changes not spelt out]
light chain: B1 light chain with K18R, V19A
notes: humanized 56E5 antibody
B8: 56E5VH4VL2 (antibody, human IgG1, kappa)
heavy chain: QVQLQESGPGLVKPSQTLSLTCTVSGGSITSDYWNWIRQHPGNKLEYMGYISYTGSTYYNPSLKSRVTITRDTSKNQFSLKLSSVTTADTAVYYCARYRDWDVRAMDYWGQGTTVTVSSASTKGPSVFPLAPSSKSTSGGTAALGCLVKDYFPEPVTVSWNSGALTSGVHTFPAVLQSSGLYSLSSVVTVPSSSLGTQTYICNVNHKPSNTKVDKKV[human IgG1 Fc with changes not spelt out]
light chain: B1 light chain with K18R, V19A
notes: humanized 56E5 antibody

monkey PD-L1 (ECD)-his, sequence (Q9NZQ7 other isoform, or with tags, fused parts or gaps): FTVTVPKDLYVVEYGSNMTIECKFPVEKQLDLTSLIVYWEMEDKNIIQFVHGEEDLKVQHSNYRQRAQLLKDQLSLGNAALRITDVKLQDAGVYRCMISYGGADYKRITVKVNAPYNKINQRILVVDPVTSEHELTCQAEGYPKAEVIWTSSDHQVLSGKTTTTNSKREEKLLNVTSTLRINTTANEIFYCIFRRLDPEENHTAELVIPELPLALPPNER
human PD-L1 (ECD)-his, sequence (Q9NZQ7 19-238): as the sequence (Q9NZQ7 other isoform, or with tags, fused parts or gaps) above, with T33A, S34A, N62S, Q68R, R82Q, L173F, A185T, I192T, L215H counted along it

One assay concerns the target T1, monkey PD-L1 expressed on HEK293A cells (monkey (cynomolgus), UniProt Q9NZQ7 (human entry)).
T1 construct: Full-length cDNA expressed stably; also called HEK293A/monkey PD-L1 cells; HEK293A/monkey PD-L1
As to the kind of experiment: FACS on HEK293A/monkey PD-L1 cells, serially diluted antibody (protocol of Example 4).
For the molecule B1, the binding result is “binds”.

B2: the binding result was “binds”.

In the case of B3, the binding result was “binds”.

On to B4, for which the binding result was “binds”.

On to B5, for which the binding result was “binds”.

On to B6, for which the binding result is “binds”.

Consider B7, for which the binding result was “binds”.

For the molecule B8, the binding result was “binds”.

The target in another assay is T2, human PD-L1 (ECD)-his (human, UniProt Q9NZQ7 fragment).
T2 construct: Bought protein; it is not tied to the bought construct by a sentence of its own; also called recombinant human PD-L1(ECD)-his; Cat #:10084-H08H, Sino Biological; not shown: His tag
As to the kind of experiment: SPR (BIAcore 8K), human PD-L1 (ECD)-his coupled to CM5 chip, antibody injected, 1:1 Langmuir model. The protocol: (§1) These antibodies were also tested in SPR assays for their binding affinities to human and monkey PD-L1 with BIAcore™ 8K instrument (GE Life Sciences). Briefly, 100-200 response units (RU) of human PD-L1 (ECD)-his protein (Cat #:10084-H08H, Sino Biological, CN) or monkey PD-L1 (ECD)-his protein (Cat #:90251-008H, Sino Biological, CN) were coupled to CM5 biosensor chips (Cat #:BR-1005-30, GE Life Sciences, US), and the un-reacted groups were blocked with 1M ethanolamine Serially diluted antibodies at concentrations ranging from 0.3 μM to 10 μM were injected into the SPR running buffer (HBS-EP buffer, pH7.4, Cat #:BR-1006-69, GE Life Sciences, US) at 30 μL/minute. The binding affinities were calculated with the RUs of blank controls subtracted. The association rate (kₐ) and dissociation rate (kd) were calculated using the one-to-one Langmuir binding model (BIA Evaluation Software, GE Life Sciences), and the equilibrium dissociation constant KD was calculated as the kd/kₐ ratio.
On the technique in general: Surface plasmon resonance follows binding to a sensor surface in real time, without labels.
Regarding B2, binding was characterised by a dissociation constant (Kd) of 0.0308 nM.

A further assay deals with T3, monkey PD-L1 (ECD)-his (monkey, UniProt Q9NZQ7 fragment (human entry)).
T3 construct: Bought protein; also called Cat #:90251-C08H, Sino Biological; not shown: His tag
As to the kind of experiment: SPR (BIAcore 8K), monkey PD-L1 (ECD)-his coupled to CM5 chip, antibody injected, 1:1 Langmuir model. The protocol:
as §1
B2: binding was characterised by a dissociation constant (Kd) of 0.441 nM.
